Measured values: the supplement of paper PMC3334620
Whole data set: some 33,000 sequences, median “E-score (-0.5 to 0.5)” near -0.054, cut for the highest 2% near 0.39. The list shows a part of the results.

The sequences below were run against Ylr278c (UniProt Q05854) (assay: PBM E-score (8-mer binding enrichment) (E-score (-0.5 to 0.5)); higher = stronger / more preferred TF binding; most listed sequences are background and not binding sites). Conditions: protein concentration: 200 nM; construct: GST-DNA-binding domain.
Procedure, shortened: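 Yeast transcription factors carrying a GST tag, as full-length proteins or DNA-binding domains, were produced by PURExpress in vitro transcription/translation. About 100-200 nM protein was applied to universal all-10-mer Agilent arrays, double-stranded by primer extension on fresh or once-stripped slides. Bound protein was detected with fluorescent anti-GST, and scans were normalised with masliner. The Universal PBM Analysis Suite gave each ungapped eight-base word, pooled with its reverse complement, an E-score, a modified Wilcoxon-Mann-Whitney statistic.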

Sequence	PBM E-score
ACTTGCCA	-0.204
CTCATAGC	-0.335
AGGGGGAT	-0.112
GAATTTTA	0.117
ATGTGAGG	-0.193
ACTAGAAC	0.0671
ATTTATTC	0.0865
GGTACATA	0.196
GATCGATA	-0.106
CCACAGAA	-0.173
GAAAACGC	-0.0904
ATTGGGTA	-0.276
AATCGCAC	-0.132
AACACGAT	0.0975
CTCGATGC	-0.162
GGCTACTA	-0.0113
ACGATCAT	-0.172
GGTACGAC	-0.154
CATCCCAA	-0.218
CAGACAGA	-0.223
GCCGAGAC	0.139
CACTCCGC	0.393
GCACTCCA	-0.071
ACTTTCAG	-0.0697
CATATCTC	0.0114

Sequence	PBM E-score
AAGTACGT	-0.112
CGGGATCA	0.193
ATCGCTTG	-0.321
AGCCCAAT	-0.15
CCTTTGTA	-0.23
CCACTGGG	-0.149
AGGCAATC	-0.163
ACTTTTCA	-0.324
GTCGGCAC	0.171
ACGAATGC	-0.163
AGCACACG	-0.204
AAAATAAC	-0.142
CACGTGAA	-0.0639
TATGGAAA	-0.034
CGGACATC	0.421
CGCCGAAA	0.358
CGCGGACC	0.386
AGTGGATC	0.0696
ATATGGCG	0.142
GGTCAAGA	-0.149
CAGGGTAA	-0.211
CCTACTAG	-0.254
CAGGATCA	-0.0765
AACATGAT	-0.0638
CACGAACC	-0.145

Sequence	PBM E-score
AAGCGATC	0.0764
TAATCCTA	0.0848
AAACACAC	-0.0375
ACCTACAT	-0.0972
CGCAAGAG	-0.0595
GGGGCTAC	0.0935
ACGGTACT	0.017
GGATAGAC	-0.0587
GGGTTAGA	-0.0507
CATCAACG	0.0343
ACATCACT	-0.137
GATAGGAC	-0.123
ACGACATG	-0.16
TGGTACCA	-0.008
CAGCAATC	-0.108
AAAACCCG	0.369
CTATTCAC	0.0556
AAGAGTGT	-0.126
CAAGAAGA	-0.121
GCATTACA	-0.0626
CAAAAACC	0.194
GCTGGGGA	-0.114
CTCGCACA	0.0207
CTGACAGC	-0.0804
CCAAAGTC	-0.0999

Sequence	PBM E-score
ATGTGTCC	0.0567
GGCTGGAA	-0.0866
CGTTTTGC	-0.0286
AACTAAGT	-0.0963
CCCTGCAG	0.0146
CCTTCACG	0.00613
GGCCAAGA	-0.0893
CGTGAGAG	-0.158
GGGGCCGA	0.0787
CTGTGGCA	-0.311
TAGATCCA	-0.128
AAGGTACT	-0.0144
ACTATCAC	-0.173
CGTGATTC	-6e-05
ACGGGGGC	-0.00097
TCGCCACA	0.0158
CATAGTAA	-0.204
CCTTTGAA	-0.189
ACTCCCCT	0.174
CGCCACAA	0.00563
CAAAGTGC	-0.0832
GATCCTAC	0.0326
ATCTCTGG	-0.239
CGCTGGTC	-0.118
AGGTGTAA	-0.0299

Sequence	PBM E-score
TGGTGACA	-0.138
CCAGACAG	-0.173
ATCGCGAT	0.0638
ATCTGGCG	-0.0525
ACTCGTAA	-0.00301
CCTGTTAG	-0.0475
GAGGCGGA	0.373
CCAACAGC	-0.112
AAGTACCC	0.00262
CATATATC	-0.0515
GACCTTAC	0.0881
CGTGAATA	-0.00311
CCCTATAC	-0.0456
CCCGGTGC	0.335
ATTGGCGG	0.133
ACCCCAAG	0.0432
ATCGGACA	0.419
CGGAAGCA	0.321
CGGATTAG	0.299
GCGGCTGA	-0.177
TCCGCAAA	0.367
AACGTCCA	-0.111
AAGATCTA	-0.169
CGGCGGTA	0.361
GGGAAGGA	-0.0567

Sequence	PBM E-score
GTTATAGA	-0.267
AAAAAATG	0.0882
CCAACGGC	0.0697
ATCTAACA	-0.275
ATGGAGCG	-0.0671
TAGTTCAA	-0.019
CCTATACG	-0.298
AGTGGTCG	0.0431
GGAGTCCC	0.256
AACTCACG	-0.205
TAGTGAGA	-0.00892
GGCAGGAA	-0.119
GTACGGTA	0.0379
ACCAAGAC	-0.0132
ATCCGAAA	0.368
TAGCCTAA	-0.162
GTAGGGAC	-0.123
ACTGGTGC	-0.0757
GAGGCGGC	0.177
CATATGAG	-0.0107
CGCTGAAA	0.0975
AGCTATAT	-7e-05
TCAATTCA	-0.0799
GCCTCCTA	-0.0795
GGGCGAGA	-0.0207

Sequence	PBM E-score
CCCTTCCC	-0.00378
CTCTTCGA	-0.0617
CCGCGAGG	0.338
AGTCTCCC	0.102
AGCGGACG	0.252
GCTGGACA	-0.211
AAAAAACC	0.00451
TGGGACCA	-0.194
AGAGCCAA	-0.238
CTAAGACC	0.0428
CTCCATAA	-0.269
AAGTGCCG	0.205
CAGGAAGC	-0.0754
GCGTGCAA	-0.121
AGTGCCAC	-0.239
AAAACCGG	0.375
AAGCTGGG	-0.143
AGATGTCC	0.16
GAGTAAAA	0.0413
ACTAAATG	-0.0707
GCCCACGA	-0.146
AATACCCG	0.212
CTGGCAAA	-0.0515
ATCTTCGA	-0.0649
GTGCGATA	-0.046

Sequence	PBM E-score
ACTATGTA	-0.129
ATGACTTG	-0.0562
ACTCCAAT	-0.0126
GCGTGAAA	-0.0229
TCCTCCAA	-0.245
CTGAACTC	-0.141
GAGTGTGC	0.0412
ATGACTGC	-0.0571
GAGAATGC	0.0708
CCCCAAGC	0.121
CGGCCGAG	0.279
ACAACGCC	0.107
TCAATAGA	-0.253
CCTAGGGA	0.0579
GAGCGCCC	0.00794
CACAATTC	-0.00445
TACATAAA	-0.232
AGCGAGTC	-0.122
AGTGCAAG	-0.137
ATGGCCTC	0.077
AACCGAGC	0.171
AACGCCGC	0.339
CCCTATAG	-0.264
GTAGTAAC	0.0594
CGTTTACC	0.0804

Sequence	PBM E-score
GATCCAAC	0.0139
CTGAGCAG	-0.238
CTTACAAC	-0.168
AACTTCCT	0.00298
CAGTAGAA	-0.217
CGGGTGAC	0.0902
GCGACGCC	0.21
AGAATATG	-0.0292
GCCGTCAC	0.244
CTATTCTA	-0.133
CACAAGGA	-0.349
ACTGGGGG	-0.168
AATTGCGG	0.225
GTTCGAGA	-0.122
ATAAAGCC	0.107
CTTCATCA	-0.0255
CGATAGGC	0.0223
GCGTGCGA	-0.0371
GGAGGAAA	0.261
